B1: TNFα dAb Fc variant S63K (Fc fusion, name in Kabat numbering)
chain: DIQMTQSPSSLSASVGDRVTITCRASQAIDSYLHWYQQKPGKAPKLLIYSASNLETGVPSRFKGSGSGTDFTLTISSLLPEDFATYYCQQVVWRPFTFGQGTKVEIKRV[human IgG1 Fc with changes left out]
B2: TNFα dAb Fc variant S63Q (Fc fusion, name in Kabat numbering)
chain: DIQMTQSPSSLSASVGDRVTITCRASQAIDSYLHWYQQKPGKAPKLLIYSASNLETGVPSRFQGSGSGTDFTLTISSLLPEDFATYYCQQVVWRPFTFGQGTKVEIKRV[human IgG1 Fc with changes left out]
B3: TNFα dAb Fc variant S63Y (Fc fusion, name in Kabat numbering)
chain: DIQMTQSPSSLSASVGDRVTITCRASQAIDSYLHWYQQKPGKAPKLLIYSASNLETGVPSRFYGSGSGTDFTLTISSLLPEDFATYYCQQVVWRPFTFGQGTKVEIKRV[human IgG1 Fc with changes left out]
B4: TNFα dAb Fc variant S65H (Fc fusion, name in Kabat numbering)
chain: DIQMTQSPSSLSASVGDRVTITCRASQAIDSYLHWYQQKPGKAPKLLIYSASNLETGVPSRFSGHGSGTDFTLTISSLLPEDFATYYCQQVVWRPFTFGQGTKVEIKRV[human IgG1 Fc with changes left out]
B5: TNFα dAb Fc variant S65K (Fc fusion, name in Kabat numbering)
chain: DIQMTQSPSSLSASVGDRVTITCRASQAIDSYLHWYQQKPGKAPKLLIYSASNLETGVPSRFSGKGSGTDFTLTISSLLPEDFATYYCQQVVWRPFTFGQGTKVEIKRV[human IgG1 Fc with changes left out]
B6: TNFα dAb Fc variant S65L (Fc fusion, name in Kabat numbering)
chain: DIQMTQSPSSLSASVGDRVTITCRASQAIDSYLHWYQQKPGKAPKLLIYSASNLETGVPSRFSGLGSGTDFTLTISSLLPEDFATYYCQQVVWRPFTFGQGTKVEIKRV[human IgG1 Fc with changes left out]
B7: TNFα dAb Fc variant S67D (Fc fusion, name in Kabat numbering)
chain: DIQMTQSPSSLSASVGDRVTITCRASQAIDSYLHWYQQKPGKAPKLLIYSASNLETGVPSRFSGSGDGTDFTLTISSLLPEDFATYYCQQVVWRPFTFGQGTKVEIKRV[human IgG1 Fc with changes left out]
B8: TNFα dAb Fc variant T69A (Fc fusion, name in Kabat numbering)
chain: DIQMTQSPSSLSASVGDRVTITCRASQAIDSYLHWYQQKPGKAPKLLIYSASNLETGVPSRFSGSGSGADFTLTISSLLPEDFATYYCQQVVWRPFTFGQGTKVEIKRV[human IgG1 Fc with changes left out]
B9: TNFα dAb Fc variant T69D (Fc fusion, name in Kabat numbering)
chain: DIQMTQSPSSLSASVGDRVTITCRASQAIDSYLHWYQQKPGKAPKLLIYSASNLETGVPSRFSGSGSGDDFTLTISSLLPEDFATYYCQQVVWRPFTFGQGTKVEIKRV[human IgG1 Fc with changes left out]
B10: TNFα dAb Fc variant T69K (Fc fusion, name in Kabat numbering)
chain: DIQMTQSPSSLSASVGDRVTITCRASQAIDSYLHWYQQKPGKAPKLLIYSASNLETGVPSRFSGSGSGKDFTLTISSLLPEDFATYYCQQVVWRPFTFGQGTKVEIKRV[human IgG1 Fc with changes left out]
B11: TNFα dAb Fc variant T69L (Fc fusion, name in Kabat numbering)
chain: DIQMTQSPSSLSASVGDRVTITCRASQAIDSYLHWYQQKPGKAPKLLIYSASNLETGVPSRFSGSGSGLDFTLTISSLLPEDFATYYCQQVVWRPFTFGQGTKVEIKRV[human IgG1 Fc with changes left out]
B12: TNFα dAb Fc variant T69Q (Fc fusion, name in Kabat numbering)
chain: DIQMTQSPSSLSASVGDRVTITCRASQAIDSYLHWYQQKPGKAPKLLIYSASNLETGVPSRFSGSGSGQDFTLTISSLLPEDFATYYCQQVVWRPFTFGQGTKVEIKRV[human IgG1 Fc with changes left out]
B13: TNFα dAb Fc variant T69Y (Fc fusion, name in Kabat numbering)
chain: DIQMTQSPSSLSASVGDRVTITCRASQAIDSYLHWYQQKPGKAPKLLIYSASNLETGVPSRFSGSGSGYDFTLTISSLLPEDFATYYCQQVVWRPFTFGQGTKVEIKRV[human IgG1 Fc with changes left out]
B14: TNFα dAb Fc variant T72H (Fc fusion, name in Kabat numbering)
chain: DIQMTQSPSSLSASVGDRVTITCRASQAIDSYLHWYQQKPGKAPKLLIYSASNLETGVPSRFSGSGSGTDFHLTISSLLPEDFATYYCQQVVWRPFTFGQGTKVEIKRV[human IgG1 Fc with changes left out]
B15: TNFα dAb Fc variant Y49A (Fc fusion, name in Kabat numbering)
chain: DIQMTQSPSSLSASVGDRVTITCRASQAIDSYLHWYQQKPGKAPKLLIASASNLETGVPSRFSGSGSGTDFTLTISSLLPEDFATYYCQQVVWRPFTFGQGTKVEIKRV[human IgG1 Fc with changes left out]
B16: TNFα dAb Fc variant Y49D (Fc fusion, name in Kabat numbering)
chain: DIQMTQSPSSLSASVGDRVTITCRASQAIDSYLHWYQQKPGKAPKLLIDSASNLETGVPSRFSGSGSGTDFTLTISSLLPEDFATYYCQQVVWRPFTFGQGTKVEIKRV[human IgG1 Fc with changes left out]
B17: TNFα dAb Fc variant Y49H (Fc fusion, name in Kabat numbering)
chain: DIQMTQSPSSLSASVGDRVTITCRASQAIDSYLHWYQQKPGKAPKLLIHSASNLETGVPSRFSGSGSGTDFTLTISSLLPEDFATYYCQQVVWRPFTFGQGTKVEIKRV[human IgG1 Fc with changes left out]
B18: TNFα dAb Fc variant Y49K (Fc fusion, name in Kabat numbering)
chain: DIQMTQSPSSLSASVGDRVTITCRASQAIDSYLHWYQQKPGKAPKLLIKSASNLETGVPSRFSGSGSGTDFTLTISSLLPEDFATYYCQQVVWRPFTFGQGTKVEIKRV[human IgG1 Fc with changes left out]
B19: TNFα dAb Fc variant Y49L (Fc fusion, name in Kabat numbering)
chain: DIQMTQSPSSLSASVGDRVTITCRASQAIDSYLHWYQQKPGKAPKLLILSASNLETGVPSRFSGSGSGTDFTLTISSLLPEDFATYYCQQVVWRPFTFGQGTKVEIKRV[human IgG1 Fc with changes left out]
B20: TNFα dAb Fc variant Y49Q (Fc fusion, name in Kabat numbering)
chain: DIQMTQSPSSLSASVGDRVTITCRASQAIDSYLHWYQQKPGKAPKLLIQSASNLETGVPSRFSGSGSGTDFTLTISSLLPEDFATYYCQQVVWRPFTFGQGTKVEIKRV[human IgG1 Fc with changes left out]
B21: TNFα dAb Fc variant Y49S (Fc fusion, name in Kabat numbering)
chain: DIQMTQSPSSLSASVGDRVTITCRASQAIDSYLHWYQQKPGKAPKLLISSASNLETGVPSRFSGSGSGTDFTLTISSLLPEDFATYYCQQVVWRPFTFGQGTKVEIKRV[human IgG1 Fc with changes left out]

What follows are binders tested against recombinant human TNFα (human, UniProt P01375 partial chain) (assay: cell-based or functional assay).

B1 and B2 are the same in Standardized EC50, L929 neutralization assay (5-point): 1.33 µg/mL for the first, 1.33 µg/mL for the second.

Going from B3 to B4, the Standardized EC50, L929 neutralization assay (5-point) rises from 2.02 µg/mL to 3.71 µg/mL (1.8-fold).

First: B5
Second: B6
The Standardized EC50, L929 neutralization assay (5-point) of the first is 3.5-fold higher: 3.49 µg/mL for the first, 1.01 µg/mL for the second.

Going from B7 to B8, the Standardized EC50, L929 neutralization assay (5-point) rises from 5.13 µg/mL to 19.6 µg/mL (3.8-fold).

First: B9
Second: B10
The Standardized EC50, L929 neutralization assay (5-point) of the first is 6.7-fold lower: 1.34 µg/mL for the first, 8.98 µg/mL for the second.

B11 and B12 are within 1.5-fold of each other in Standardized EC50, L929 neutralization assay (5-point): 3.1 µg/mL for the first, 2.85 µg/mL for the second.

Going from B13 to B14, the Standardized EC50, L929 neutralization assay (5-point) rises from 2.49 µg/mL to 5.47 µg/mL (2.2-fold).

First: B15
Second: B16
The Standardized EC50, L929 neutralization assay (5-point) of the first is 4.3-fold higher: 6.56 µg/mL for the first, 1.54 µg/mL for the second.

Going from B17 to B18, the Standardized EC50, L929 neutralization assay (5-point) rises from 0.731 µg/mL to 1570 µg/mL (2100-fold).

First: B19
Second: B20
The Standardized EC50, L929 neutralization assay (5-point) of the first is 37-fold lower: 15.8 µg/mL for the first, 590 µg/mL for the second.

Binder B21 has a Standardized EC50, L929 neutralization assay (5-point) of 13.2 µg/mL.

What follows are binders tested against T1, recombinant human TNFα (CytoLab) (human, UniProt P01375 partial chain) (assay: ELISA on coated human TNFα).
T1 construct: coated on the ELISA plate at 1 µg/ml; also called Tumour necrosis factor alpha

First: B1
Second: B2
The “A450 (AU)” value of the first is higher: 0.997 AU for the first, 0.964 AU for the second.

Compared with B3, B4 is higher in “A450 (AU)” value: 0.923 AU for the first, 1.05 AU for the second.

First: B5
Second: B6
The “A450 (AU)” value of the first is higher: 1.06 AU for the first, 0.924 AU for the second.

Going from B7 to B8, the “A450 (AU)” value falls from 1.02 AU to 0.916 AU.

Compared with B9, B10 is lower in “A450 (AU)” value: 1.21 AU for the first, 1.04 AU for the second.

First: B11
Second: B12
The “A450 (AU)” value of the first is higher: 1.04 AU for the first, 1.02 AU for the second.

B13 and B14 are the same in “A450 (AU)” value: 1.03 AU for the first, 1.03 AU for the second.

Compared with B15, B16 is higher in “A450 (AU)” value: 0.455 AU for the first, 1.23 AU for the second.

Compared with B17, B18 is lower in “A450 (AU)” value: 1.12 AU for the first, 0.174 AU for the second.

Going from B19 to B20, the “A450 (AU)” value falls from 0.592 AU to 0.242 AU.

B21 was tested, and the “A450 (AU)” value was 1.15 AU.
